Test results from patent US20250270341A1 (Alector, published 2025).

T1: Full length human CD98hc on CHO cells (human)
T1 construct: CHO cells stably overexpressing it; also called CHO-human CD98hc; CHO-huCD98hc
T1 chain: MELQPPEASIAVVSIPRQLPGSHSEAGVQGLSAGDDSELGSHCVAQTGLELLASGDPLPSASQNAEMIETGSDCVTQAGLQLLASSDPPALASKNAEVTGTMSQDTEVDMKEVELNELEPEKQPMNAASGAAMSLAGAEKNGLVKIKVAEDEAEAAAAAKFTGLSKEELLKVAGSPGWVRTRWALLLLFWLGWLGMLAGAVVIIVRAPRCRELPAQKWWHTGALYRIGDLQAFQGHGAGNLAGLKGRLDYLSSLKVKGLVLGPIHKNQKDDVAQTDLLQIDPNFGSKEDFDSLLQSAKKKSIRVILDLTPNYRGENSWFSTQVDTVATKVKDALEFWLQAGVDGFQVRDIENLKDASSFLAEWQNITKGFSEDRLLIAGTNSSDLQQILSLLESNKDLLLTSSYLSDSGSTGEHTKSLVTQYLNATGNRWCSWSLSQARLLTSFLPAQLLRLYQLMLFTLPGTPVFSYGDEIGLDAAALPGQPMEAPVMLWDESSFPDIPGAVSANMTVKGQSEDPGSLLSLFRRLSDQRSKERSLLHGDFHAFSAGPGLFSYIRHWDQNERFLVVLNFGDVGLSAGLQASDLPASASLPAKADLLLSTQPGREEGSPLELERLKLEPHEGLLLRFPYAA

T2: human CD98hc endogenously expressed on HCMEC/D3 cells (human)
T2 construct: human brain endothelial cell line
T2 chain: T1 chain

T3: huCD98hc ECD Avi-His (human, UniProt P08195 105-529)
T3 construct: biotinylated on the Avi tag where captured on streptavidin; also called Human CD98-AVI-His; Human CD98hc-AVI-His
T3 sequence: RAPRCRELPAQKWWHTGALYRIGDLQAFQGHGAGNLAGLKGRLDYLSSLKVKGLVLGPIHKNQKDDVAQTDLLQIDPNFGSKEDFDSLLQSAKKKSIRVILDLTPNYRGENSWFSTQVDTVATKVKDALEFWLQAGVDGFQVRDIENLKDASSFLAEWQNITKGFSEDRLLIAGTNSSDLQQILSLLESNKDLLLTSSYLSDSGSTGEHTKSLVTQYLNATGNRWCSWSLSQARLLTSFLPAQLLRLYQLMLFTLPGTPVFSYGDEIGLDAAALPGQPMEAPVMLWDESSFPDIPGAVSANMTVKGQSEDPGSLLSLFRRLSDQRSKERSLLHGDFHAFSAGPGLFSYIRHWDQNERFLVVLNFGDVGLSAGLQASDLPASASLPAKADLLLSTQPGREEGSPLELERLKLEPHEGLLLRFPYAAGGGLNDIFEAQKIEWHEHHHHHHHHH

T4: Cyno CD98hc ECD Avi-His (cynomolgus macaque, UniProt P08195 105-529 (human entry))
T4 construct: biotinylated on the Avi tag where captured on streptavidin; also called Cyno CD98-AVI-His; Cyno CD98hc-AVI-His
T4 chain: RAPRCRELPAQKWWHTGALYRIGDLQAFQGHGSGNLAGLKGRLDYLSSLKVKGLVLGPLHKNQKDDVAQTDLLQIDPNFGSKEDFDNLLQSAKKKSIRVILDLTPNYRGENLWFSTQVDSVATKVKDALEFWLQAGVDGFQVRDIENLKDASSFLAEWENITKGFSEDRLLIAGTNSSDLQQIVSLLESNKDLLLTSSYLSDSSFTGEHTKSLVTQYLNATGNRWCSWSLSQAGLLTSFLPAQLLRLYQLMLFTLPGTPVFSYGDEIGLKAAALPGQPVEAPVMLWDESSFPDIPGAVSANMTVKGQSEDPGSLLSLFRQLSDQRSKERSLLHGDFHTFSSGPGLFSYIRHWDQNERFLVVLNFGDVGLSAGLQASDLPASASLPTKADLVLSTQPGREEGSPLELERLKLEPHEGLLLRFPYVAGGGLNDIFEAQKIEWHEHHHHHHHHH

B1: CD98hc.05.059 (2+1 bispecific antibody) (bispecific antibody)
heavy 1: EVRLLESGGGLVQPGGSLRLSCAASGFTFSNYAMGWVRQAPGKGLEWVSAISGSGGSTYYADSVKGRFTTSRDDSKNALYLQMNSLRAEDTAVYYCARGGPGWYAADVWGQGTTVTVSSASTKGPSVFPLAPSSKSTSGGTAALGCLVKDYFPEPVTVSWNSGALTSGVHTFPAVLQSSGLYSLSSVVTVPSSSLGTQTYICNVNHKPSNTKVDKKV[here human IgG1 Fc with changes without letters]GGGGSGGGGSGGGGSEIQLQQSGPELVKPGASVKVSCKASGYSFNMFWVKQSHGKSLEWIGHIDPFNGDTSYSPNFEDRASLTVDRSSNTAYMHLNSLTSEDSAVYYCARSVGAHWYFDVWGAGTTVTVSSGGSEGKSSGSGSESKSTGGSQIVLTQSPAIMSASLGERVTMTCTASSSVTSSYLYWYQQKPGSSPKLWIYSTSNLASGVPPRFSGSGSGTSYSLTISSMEAEDAATYHCQQYHRSPATFGAGTKLEIK
heavy 2: EVRLLESGGGLVQPGGSLRLSCAASGFTFSNYAMGWVRQAPGKGLEWVSAISGSGGSTYYADSVKGRFTTSRDDSKNALYLQMNSLRAEDTAVYYCARGGPGWYAADVWGQGTTVTVSS[here human IgG1 constant region with changes without letters]
light: DIQMTQSPSSLSASVGDRVTITCRASQSISSYLNWYQQKPGKAPKLLIYAASSLQSGVPSRFSGSGSGTDFTLTISSLQPEDFATYYCQQADLPAFAFGGGTKVEIKRTVAAPSVFIFPPSDEQLKSGTASVVCLLNNFYPREAKVQWKVDNALQSGNSQESVTEQDSKDSTYSLSSTLTLSKADYEKHKVYACEVTHQGLSSPVTKSFNRGEC
notes: printed VH looks shortened around CDR-H1
B2: CD98hc.05.208 (2+1 bispecific antibody) (bispecific antibody)
heavy 1: EVRLLESGGGLVQPGGSLRLSCAASGFTFSNYAMGWVRQAPGKGLEWVSAISGSGGSTYYADSVKGRFTTSRDDSKNALYLQMNSLRAEDTAVYYCARGGPGWYAADVWGQGTTVTVSSASTKGPSVFPLAPSSKSTSGGTAALGCLVKDYFPEPVTVSWNSGALTSGVHTFPAVLQSSGLYSLSSVVTVPSSSLGTQTYICNVNHKPSNTKVDKKV[here human IgG1 Fc with changes without letters]GGGGSGGGGSGGGGSQVQLQQSGPELVRPGVSVKISCKSSGYAFTDYAVHWVRQSRAMSLEWIGIISTYSGNIDYNQQFKGKATMTVDKSSSTVYMELARLTSEDSAIYFCARGGRHYYGSYYYAFDYWGQGTSVTVSSGGSEGKSSGSGSESKSTGGSDIVMTQSPSSLAISVGQKVTMSCKSSQSLLNRNNQKNYLAWYQQKPGQSPKLLLYFTSTRESGVPDRFIGSGSGTDFTLIISSVQAEDLADYFCQQHYSTPPTFGGGTKLEIK
heavy 2: EVRLLESGGGLVQPGGSLRLSCAASGFTFSNYAMGWVRQAPGKGLEWVSAISGSGGSTYYADSVKGRFTTSRDDSKNALYLQMNSLRAEDTAVYYCARGGPGWYAADVWGQGTTVTVSS[here human IgG1 constant region with changes without letters]
light: B1 light

Experiments:
[1] = molecular target: T1, Full length human CD98hc on CHO cells; experiment: FACS
Experimental: (§1) Purified 2+1 anti-CD98hc bispecific antibodies were screened for binding to human and cyno CD98hc by ELISA as in Example 6. Purified 2+1 bispecific antibodies were screened at concentrations ranging from 1-30 μg/mL. ELISA binding to human and cyno CD98 and control cyno TfR AVI-His tagged proteins as a ratio to secondary antibody alone were calculated, and values are listed in Table 10A. Purified 2+1 bispecific antibodies were also screened for their ability to bind CHO cells overexpressing human or mouse CD98hc or cells endogenously expressing human CD98hc by FACS. […] Data was acquired on a FACS Canto (BD Biosciences). The ratio of binding to endogenously expressing human brain endothelial cells over secondary only is also in Table 12B. 47 out of 94 of the 2+1 anti-CD98hc bispecific antibodies screened were positive by ELISA with signal at least 5-fold higher than the secondary alone, and 16 were ELISA and FACS positive which FACS binding increased 3-fold or more compared to non-expressing cells.

[2] = molecular target: T2, human CD98hc endogenously expressed on …; experiment: FACS
Experimental: as §1

huCD98hc ECD Avi-His = molecular target: T3, huCD98hc ECD Avi-His; experiment: ELISA, 1-30 ug/mL
Experimental: (§2) Blocking buffer was removed and human, cyno, or mouse Avi-His-tagged CD98hc and Avi-His-tagged human TfR polypeptides were added at 1 μg/ml in ELISA diluent and captured for 1 hour at room temperature. After washing three times with 300 μl of PBST (PBS+0.05% Tween20, Thermo 28352), the hybridoma cell culture supernatants or 1 μg/ml of commercially available purified mouse anti-human CD98hc monoclonal antibody (Sigma Aldrich, Cat #SAB 4700503) and rat anti-mouse CD98hc antibody (Bio-Rad Laboratories, Hercules, CA, Cat #MCA2684) were added (50 μl/well) to each well. After 30 minutes of incubation at room temperature, the plates were washed three times with 300 μl of PBST. […] After a final set of washes (3×300 μl in PBST), 50 μl/well of BioFx TMB substrate (Surmodics, Eden Praire, MN, Cat #TMBW-1000-01) was added to the wells. The reaction was then quenched after 5-10 mins with 50 μl/well of 2N sulfuric acid. The plates were read for absorbance at 450 nm on a SpectraMax M5 (Molecular Devices, Sunnyvale, CA) using SoftMax Pro software.
(§3) Purified 2+1 anti-CD98hc bispecific antibodies were screened for binding to human and cyno CD98hc by ELISA as in Example 6. Purified 2+1 bispecific antibodies were screened at concentrations ranging from 1-30 μg/mL. ELISA binding to human and cyno CD98 and control cyno TfR AVI-His tagged proteins as a ratio to secondary antibody alone were calculated, and values are listed in Table 10A. Purified 2+1 bispecific antibodies were also screened for their ability to bind CHO cells overexpressing human or mouse CD98hc or cells endogenously expressing human CD98hc by FACS. […] Data was acquired on a FACS Canto (BD Biosciences).

cyno TfR AVI-His = molecular target: T5, cyno TfR AVI-His (cyno, UniProt H9EXL1 89-760 (rhesus entry)); experiment: ELISA, 1-30 ug/mL
cyno TfR AVI-His, sequence (chain, as listed by the source): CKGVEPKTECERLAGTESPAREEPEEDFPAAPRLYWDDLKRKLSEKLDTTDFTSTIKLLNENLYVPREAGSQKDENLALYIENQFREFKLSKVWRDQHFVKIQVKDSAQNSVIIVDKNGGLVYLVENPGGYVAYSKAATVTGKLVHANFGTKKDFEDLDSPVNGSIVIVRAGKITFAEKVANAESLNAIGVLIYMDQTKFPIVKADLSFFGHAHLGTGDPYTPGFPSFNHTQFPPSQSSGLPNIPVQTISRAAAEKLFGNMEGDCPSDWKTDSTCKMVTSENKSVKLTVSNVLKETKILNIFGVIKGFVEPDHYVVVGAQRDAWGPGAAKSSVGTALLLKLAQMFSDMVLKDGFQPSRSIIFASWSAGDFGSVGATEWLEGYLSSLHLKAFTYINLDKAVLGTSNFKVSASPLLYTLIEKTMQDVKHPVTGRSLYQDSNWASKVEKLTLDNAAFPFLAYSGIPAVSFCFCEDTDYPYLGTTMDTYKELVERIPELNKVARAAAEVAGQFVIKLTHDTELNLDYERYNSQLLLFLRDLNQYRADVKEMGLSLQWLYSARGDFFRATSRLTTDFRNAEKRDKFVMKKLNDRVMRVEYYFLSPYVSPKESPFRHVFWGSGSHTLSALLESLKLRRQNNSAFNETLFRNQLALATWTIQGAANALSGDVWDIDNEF
T5 construct: control protein
Experimental: as §2, §3

Cyno CD98hc ECD Avi-His = molecular target: T4, Cyno CD98hc ECD Avi-His; experiment: ELISA, 1-30 ug/mL
Experimental: as §2, §3

Binder	MFI ratio CHO huCD98/CHO parental [1]	MFI ratio HCMEC/2nd ab only [2]	ELISA ratio to 2nd only (huCD98hc ECD Avi-His)	ELISA ratio to 2nd only (cyno TfR AVI-His)	ELISA ratio to 2nd only (Cyno CD98hc ECD Avi-His)
B1	21	139	32	1	19
B2	3	33	5	1	1
